Source: publication PMC12136788
Some of the results follow.

B1: chr1:39494447:39494448:+_ENSG00000168653_ENST00000372967|hu_mus|hu_hu_hu_mus_False|38_108 (ssRNA)
RNA: GGGAGUUCUACAGUCCGACGAUCGCAUCGACCAGCCUUCUUAUAGGGCUGUUCUGCGCUUAGGAACAUAAAGUGCCGGUCCAGGCUGAUGCCCAGCCUUUUCUGGAUGUCAAGGAAAGGCAUGGCUCUGCAGUGCCCUUGUCACAACAGAGGAUUGAGCAUCA
B2: chrX:140365796:140365797:-_ENSMUSG00000031285_ENSMUST00000033642|mus_mus|mus_mus_mus_hu_False|28_28 (ssRNA)
RNA: GGGAGUUCUACAGUCCGACGAUCCUUCUCAUUACUCAGUGCCUGCAAGGUUCUGGUUCGGUAGAAGCUACAGUGGGCGCUGUGAGUGGGGCUAGGCAACCCAUUCAUCCGUGACCCUCGCAUGUUCCUGGAUGUCUUAUCUCUCAACAGAGGAUUGAGCAUCA
B3: chr14:70237991:70237992:+_ENSG00000100650_ENST00000557154|hu_mus|motif|central (ssRNA)
RNA: GGGAGUUCUACAGUCCGACGAUCCCUGCUCCUUGAUCGGCUGUAAGACUUGCUCCUUCGUGAACGGGAUCGGCUACGGGACCGGGAGGAACUUCUGGUCCGAGAUCGUGACCUGCUUCUUGACCUGUGCCUUUUGCUGCCUUCCAACAGAGGAUUGAGCAUCA
B4: chr3:176767854:176767855:-_ENSG00000177565_ENST00000430069|hu_hu|hu_hu_hu_mus_False|8_28 (ssRNA)
RNA: GGGAGUUCUACAGUCCGACGAUCGACAUCCUUGUUACUGGGCACGUCCUGCCCUCCUUCCCGUAUGCAGUGUCUAAGCACGAGCUGCGUAGGGCCACUCGUGCUGUUCUCACUAAGGUUCCAGAUUCUUGCUGUUGAGUCUCCCAACAGAGGAUUGAGCAUCA
B5: 71494177_71494297_5353_CDS_ENSG00000131711_ENST00000296755|human|control|control (ssRNA)
RNA: GGGAGUUCUACAGUCCGACGAUCAGGUGGUAUCUUAUGUGAUAAACUGGAGUCCUGCAUGUCAGAAGGACUGUAGUCCACUUCAGUUGGCCCAUUUUCAGUGAUGUGAAGCACGCCUGCACCCACUGUAGGGUGAUCUGGAGACAACAGAGGAUUGAGCAUCA
B6: chr17:34985079:34985080:-_ENSMUSG00000040356_ENSMUST00000046022|mus_hu|FALSE|FALSE (ssRNA)
RNA: GGGAGUUCUACAGUCCGACGAUCAGCCGAGAGAUUUGUGUUCUCCAGCAAGACCUCUUUGUAACCCAGUAUCUGGCCUGUGGUUGGGUGUCUUUGGGCCUGUAGGUCGGAUGGGACUGGGGCUCCCAGGACAGCCAAAAGAGACAACAGAGGAUUGAGCAUCA

biological target: T1, UNK ZnF1-3 (human, UniProt Q9C0B0 31-174); experiment: nsRBNS (natural sequence RNA bind-n-seq); RBNS binding buffer (assumed for nsRBNS): 25 mM Tris pH 7.5, 150 mM KCl, 3 mM MgCl2, 0.01% Triton X-100, 500 ug/ml BSA, 20 U/ml SUPERase-In, 4 C; UNK is unkempt and MSI1 is Musashi-1; names of the RNAs are library labels; protein concentration not given here; high values mean tight binding
T1 sequence: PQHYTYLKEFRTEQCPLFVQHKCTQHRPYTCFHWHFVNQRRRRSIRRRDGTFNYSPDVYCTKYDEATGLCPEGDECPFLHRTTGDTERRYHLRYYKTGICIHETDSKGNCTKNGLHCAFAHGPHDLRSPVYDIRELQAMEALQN

Binder | binding signal [enrichment R]
B1 | 0.793
B2 | 0.771
B3 | 0.724
B4 | 0.414
B5 | 0.359
B6 | 0.927
